Hit rate of the full screen: of about 310,000 compounds, about 2,200 (0.71%) showed an effect of 50% or more. Effects have a minus sign here. The list shows a part of the results.
The compounds below were run against human ether-à-go-go-related gene (hERG) potassium channel (human, UniProt Q12809) (assay: primary screen, population patch clamp on CHO cells stably expressing hERG).
Sequence of human ether-à-go-go-related gene (hERG) potassium channel (Q12809 whole entry, looked up): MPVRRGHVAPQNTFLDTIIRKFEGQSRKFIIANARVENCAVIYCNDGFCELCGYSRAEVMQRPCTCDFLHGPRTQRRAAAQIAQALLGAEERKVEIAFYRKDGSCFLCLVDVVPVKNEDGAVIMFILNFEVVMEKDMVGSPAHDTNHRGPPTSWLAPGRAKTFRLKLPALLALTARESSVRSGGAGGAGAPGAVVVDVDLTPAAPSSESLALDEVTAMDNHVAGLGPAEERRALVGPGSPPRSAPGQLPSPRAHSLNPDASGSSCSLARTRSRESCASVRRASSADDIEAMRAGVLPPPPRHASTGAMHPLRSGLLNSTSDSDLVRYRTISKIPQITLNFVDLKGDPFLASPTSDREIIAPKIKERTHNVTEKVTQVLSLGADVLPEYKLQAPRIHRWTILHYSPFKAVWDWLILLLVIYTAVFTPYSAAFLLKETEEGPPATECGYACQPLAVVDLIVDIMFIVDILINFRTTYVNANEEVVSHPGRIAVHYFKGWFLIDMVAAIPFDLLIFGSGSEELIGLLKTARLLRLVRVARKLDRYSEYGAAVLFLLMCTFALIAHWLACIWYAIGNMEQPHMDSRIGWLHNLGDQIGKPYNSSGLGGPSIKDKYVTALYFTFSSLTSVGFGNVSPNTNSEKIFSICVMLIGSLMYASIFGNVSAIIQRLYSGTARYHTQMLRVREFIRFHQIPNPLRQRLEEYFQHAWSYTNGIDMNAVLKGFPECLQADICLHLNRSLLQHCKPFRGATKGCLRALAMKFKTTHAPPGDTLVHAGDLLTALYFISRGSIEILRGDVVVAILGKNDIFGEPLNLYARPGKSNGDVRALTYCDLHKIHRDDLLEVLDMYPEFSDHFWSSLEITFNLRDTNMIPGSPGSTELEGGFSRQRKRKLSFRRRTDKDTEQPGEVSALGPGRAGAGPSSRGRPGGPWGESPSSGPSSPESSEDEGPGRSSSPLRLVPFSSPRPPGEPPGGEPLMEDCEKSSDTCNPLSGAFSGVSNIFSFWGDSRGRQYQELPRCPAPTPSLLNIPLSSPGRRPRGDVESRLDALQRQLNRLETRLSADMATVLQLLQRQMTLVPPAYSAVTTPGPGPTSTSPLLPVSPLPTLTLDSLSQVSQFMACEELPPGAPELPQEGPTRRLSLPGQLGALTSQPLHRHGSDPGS
`Nc1nonc1-c1nc2ccccc2n1CC(=O)N/N=C/c1ccc(-c2ccccc2C(=O)O)o1` was tested, and the “hERG current change (%, negative = inhibition) at 1uM” value was 11.9%.
In the case of `O=C(O)CNS(=O)(=O)c1c(Cl)cccc1Cl`, the “hERG current change (%, negative = inhibition) at 1uM” value is reported as 14.5%.
`O=C(NCc1n[nH]c(=S)n1-c1ccc(Br)cc1)c1ccc(S(=O)(=O)N2CCCC2)cc1` was tested, and the “hERG current change (%, negative = inhibition) at 1uM” value was 13.3%.
With `O=C1NC(=O)N(c2cccc(Cl)c2)C(=O)/C1=C\c1ccc(Sc2nc3ccccc3[nH]2)o1` the “hERG current change (%, negative = inhibition) at 1uM” value was 10.1%.
`CC(=O)c1ccc(N2CCN(C(=O)Nc3ccc(F)cc3)CC2)cc1` was tested, and the “hERG current change (%, negative = inhibition) at 1uM” value was -2%.
For `COc1ccc(-c2nnc(SCC(=O)NC(=O)NCc3ccco3)o2)cc1`, the “hERG current change (%, negative = inhibition) at 1uM” value was 11.7%.
With `CCCN(CC(=O)Nc1ccccc1OC)C(=O)Cc1ccc2c(c1)CCC2` the “hERG current change (%, negative = inhibition) at 1uM” value was 4.36%.
In the case of `O=C(CSc1nc2ccccc2s1)N1c2ccccc2Sc2ccc(C(F)(F)F)cc21`, the “hERG current change (%, negative = inhibition) at 1uM” value is reported as 5.36%.
In the case of `CCc1ccc2nc(SCC(=O)N(CC)CC)c(C#N)cc2c1`, the “hERG current change (%, negative = inhibition) at 1uM” value is reported as -1.58%.
`CC(=O)c1c(O)c2ccccc2n(C)c1=O` was tested, and the “hERG current change (%, negative = inhibition) at 1uM” value was 17%.
For `Cc1nc2c(Br)c(C)nn2c2c1CCC2`, the “hERG current change (%, negative = inhibition) at 1uM” value was 14.8%.
In the case of `CCOC(=O)c1cn2nc(N3CCCCC3)ccc2n1`, the “hERG current change (%, negative = inhibition) at 1uM” value is reported as 4.77%.
In the case of `COc1cccc(-c2csc3nc[nH]c(=O)c23)c1`, the “hERG current change (%, negative = inhibition) at 1uM” value is reported as 12.9%.
With `Cc1cccc(NC(=S)N=Nc2c(O)n(C)c3ccc(S(=O)(=O)N4CCOCC4)cc23)c1` the “hERG current change (%, negative = inhibition) at 1uM” value was 0.0603%.
For `N#Cc1cc(N)ccc1Sc1ccc(Cl)cc1`, the “hERG current change (%, negative = inhibition) at 1uM” value was 15.8%.
With `COc1cc(C)ccc1OCCOCCOc1ccccc1[N+](=O)[O-]` the “hERG current change (%, negative = inhibition) at 1uM” value was -6.33%.
`CCN(CC(=O)Nc1ccc(NC(C)=O)cc1)C(=O)c1cccc(S(=O)(=O)N2c3ccccc3CC2C)c1` (stereo not drawn) was tested, and the “hERG current change (%, negative = inhibition) at 1uM” value was 0.214%.
For `CCN(CC(=O)NCc1ccc(Cl)cc1)C(=O)/C=C/c1cc(OC)c(OC)c(OC)c1`, the “hERG current change (%, negative = inhibition) at 1uM” value was 11.2%.
In the case of `Cn1c(C(=O)N2CCN(C(=O)c3ccco3)CC2)cc2c(=O)n(C)c3ccccc3c21`, the “hERG current change (%, negative = inhibition) at 1uM” value is reported as -1.12%.
In the case of `COc1ccc(C)cc1N(CC(=O)N1CCCC1)S(C)(=O)=O`, the “hERG current change (%, negative = inhibition) at 1uM” value is reported as 9.85%.
For `O=C(Oc1ccc([N+](=O)[O-])cc1)c1ccc2ccccc2n1`, the “hERG current change (%, negative = inhibition) at 1uM” value was 7.68%.
`O=c1[nH]nc(Cc2ccccc2)c2ccccc12` was tested, and the “hERG current change (%, negative = inhibition) at 1uM” value was 11.9%.
In the case of `CC1CCCN(CCCNC(=O)c2ccc3c(c2)N(Cc2ccccc2F)C(=O)c2ccccc2S3(=O)=O)C1` (stereo not drawn), the “hERG current change (%, negative = inhibition) at 1uM” value is reported as 19.7%.
For `COC(=O)C(C#N)C(=C1C(=O)CC(C)(C)CC1=O)c1ccc(O)cc1` (stereo not drawn), the “hERG current change (%, negative = inhibition) at 1uM” value was 17.9%.
`COCCNC(=O)CN1c2ccccc2CC1C` (stereo not drawn) was tested, and the “hERG current change (%, negative = inhibition) at 1uM” value was 6.18%.
`O=C(COC(=O)/C=C/c1ccccc1F)Nc1nnc(-c2ccccc2)o1` was tested, and the “hERG current change (%, negative = inhibition) at 1uM” value was 7.16%.
For `CCc1cccc(NC(=O)CCc2nc3sc4c(c3c(=O)[nH]2)CCCC4)c1`, the “hERG current change (%, negative = inhibition) at 1uM” value was -0.886%.
`O=C(Nc1ccc(F)cc1)/C(=C1/CCCCCN1)[N+](=O)[O-]` was tested, and the “hERG current change (%, negative = inhibition) at 1uM” value was 10.6%.
With `CCCNC(=S)N1CCC(c2nc3cc(C)c(C)cc3[nH]2)CC1` the “hERG current change (%, negative = inhibition) at 1uM” value was 4.91%.
For `OCCN(Cc1ccccc1)Cc1nc(CC2CC2)no1`, the “hERG current change (%, negative = inhibition) at 1uM” value was 4.94%.
With `COc1ccc(Cl)cc1NC(=O)NCc1cccnc1` the “hERG current change (%, negative = inhibition) at 1uM” value was 5.53%.
With `CCCCC(=O)NC(c1ccc(OC)c(OC)c1)c1c(O)ccc2ccccc12` (stereo not drawn) the “hERG current change (%, negative = inhibition) at 1uM” value was 7.85%.
In the case of `CCOc1ccc(NC(=O)CCn2ccnc2)cc1`, the “hERG current change (%, negative = inhibition) at 1uM” value is reported as 17.3%.
In the case of `Cc1ccc(C(=O)NNC(=O)CSc2n[nH]c(-c3cccnc3)n2)cc1`, the “hERG current change (%, negative = inhibition) at 1uM” value is reported as 15.6%.
In the case of `COc1ccc(NC(=O)c2cccc(C#N)c2)cc1NS(=O)(=O)c1ccc(F)cc1`, the “hERG current change (%, negative = inhibition) at 1uM” value is reported as 12.9%.
`CC1CN(C(=O)c2cccn(Cc3c(Cl)cccc3Cl)c2=O)CC(C)O1` (stereo not drawn) was tested, and the “hERG current change (%, negative = inhibition) at 1uM” value was 15.9%.
In the case of `CCOC(=O)NC(c1cccc(Cl)c1)C1CCCCCC1=O` (stereo not drawn), the “hERG current change (%, negative = inhibition) at 1uM” value is reported as 3.02%.
`NNC(=O)c1cncc(Br)c1` was tested, and the “hERG current change (%, negative = inhibition) at 1uM” value was 12.1%.
With `O=C(CSc1ncccn1)N1CCC(Cc2ccccc2)CC1` the “hERG current change (%, negative = inhibition) at 1uM” value was 8.09%.
`Cn1c(=O)n(C)c2cc(S(=O)(=O)NCCc3ccccc3)ccc21` was tested, and the “hERG current change (%, negative = inhibition) at 1uM” value was 18.7%.
For `O=C(CS)Nc1ccc2ccccc2c1`, the “hERG current change (%, negative = inhibition) at 1uM” value was 18.4%.
`CC(NCC1(N2CCOCC2)CCCCC1)C(=O)Nc1ccc(Cl)cc1Cl.O=C(O)C(=O)O` (stereo not drawn) was tested, and the “hERG current change (%, negative = inhibition) at 1uM” value was -44.9%.
In the case of `CCN(CCCNC(=O)CCn1c(=O)[nH]c2ccsc2c1=O)c1ccccc1`, the “hERG current change (%, negative = inhibition) at 1uM” value is reported as 10.6%.
`c1ccc(Nc2nc(-c3ccncc3)cs2)cc1` was tested, and the “hERG current change (%, negative = inhibition) at 1uM” value was 9.66%.
`O=C(O)c1cccc(-c2ccc(/C=N/NC(=O)c3cccnc3)o2)c1` was tested, and the “hERG current change (%, negative = inhibition) at 1uM” value was 8.89%.
